Measured values as given in paper PMC6919601, “Identification of Plasmodium dipeptidyl aminopeptidase allosteric inhibitors by high throughput screening” (PLoS ONE, 2019).
Among all 110,000 compounds or so, about 230 (0.21%) showed an effect of 50% or more. The list shows a part of the results.

Target: DPAP1 (Plasmodium falciparum, UniProt Q8IIJ9)
Test: primary screen, percent inhibition; read by cleavage of a fluorogenic dipeptide substrate; higher = more effect of the substance
Design: species or system P. falciparum D10 trophozoite lysates; single well
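Also: 30 min substrate incubation versus DMSO and 10 µM JCP410 controls.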

DPAP1, sequence (Q8IIJ9 whole entry, looked up): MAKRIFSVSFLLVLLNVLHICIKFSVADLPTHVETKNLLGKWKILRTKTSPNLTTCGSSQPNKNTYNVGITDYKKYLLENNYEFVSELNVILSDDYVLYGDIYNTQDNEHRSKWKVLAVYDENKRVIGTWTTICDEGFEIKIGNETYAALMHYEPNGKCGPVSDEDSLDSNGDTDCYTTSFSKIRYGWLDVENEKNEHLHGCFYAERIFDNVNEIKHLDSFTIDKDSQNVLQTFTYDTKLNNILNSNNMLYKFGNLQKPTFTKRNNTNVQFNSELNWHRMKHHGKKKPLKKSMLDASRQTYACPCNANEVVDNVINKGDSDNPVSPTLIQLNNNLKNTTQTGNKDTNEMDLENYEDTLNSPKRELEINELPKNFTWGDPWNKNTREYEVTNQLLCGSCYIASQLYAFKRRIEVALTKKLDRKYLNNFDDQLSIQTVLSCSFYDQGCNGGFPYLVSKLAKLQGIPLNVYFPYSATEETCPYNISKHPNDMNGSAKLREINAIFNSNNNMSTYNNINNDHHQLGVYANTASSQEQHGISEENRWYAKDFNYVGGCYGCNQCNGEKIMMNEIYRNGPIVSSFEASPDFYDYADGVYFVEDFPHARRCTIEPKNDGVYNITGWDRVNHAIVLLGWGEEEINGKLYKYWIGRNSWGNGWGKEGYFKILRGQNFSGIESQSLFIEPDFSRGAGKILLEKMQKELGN

SMILES | % Inhibition @ 10 uM [%]
CC1=C(C(=O)Nc2ccccc2)C(c2ccc(Cl)cc2)NC(S)=N1 (stereo not shown) | -1.66
Nc1nonc1C(=O)NCCNCc1ccsc1 | 4.83
CC(=O)Nc1ccc(CNc2ccc(C)cc2)cc1 | 4.08
Sc1nc2ccccc2n2c(S)nnc12 | -7.42
CC(C)NC(=O)CCCN1C(=O)c2ccccc2Sc2ncccc21 | 2.33
Cc1nnc(SCc2ccc(F)cc2Cl)c2cc3occc3n12 | 3.88
CCOC(=O)c1c(C)oc(N)c1C#N | -8.8
COc1ccc(NC(=O)c2sc(Cl)nc2-c2ccccc2)cc1 | -3.45
CCN(CC)c1ncnc2c1c(-c1ccccc1)cn2-c1ccc(F)cc1 | -4.28
CN1CCC(O)(c2ccccc2)C(C(=O)c2ccccc2)C1 (stereo not shown) | 1.21
O=C(ON1C(=O)c2ccccc2C1=O)c1ccco1 | 43.8
O=C(NCCN1CCCCC1)c1ccccn1 | 11.9
Cc1ccc2oc(-c3cc(NC(=O)c4nc[nH]n4)ccc3O)nc2c1 | -7.28
COc1cc(CN2CCSCC2)cc([N+](=O)[O-])c1O | -0.828
COc1ccc(/C=C2\SC(=O)N(CC(=O)N3CCCCC3)C2=O)cc1OC | -1.06
Cc1nn(CC(O)COc2ccc3c(c2)CCC3)c(C)c1Cl (stereo not shown) | 2.99
CSc1nnc(NC(=O)c2cc(=O)c3cc(C)ccc3o2)s1 | 0.248
CCCCc1ccc(-n2c(C)cc(C=C3C(=O)NC(=O)NC3=O)c2C)cc1 | 1.91
CC(C)C1C(=O)CC(c2ccccc2)NC1c1ccccc1 (stereo not shown) | -1.25
Cc1cccc(C)c1OCC(=O)Nc1ccc(Br)cc1F | 5.67
COc1cccc(NC(=O)CN(Cc2ccc(Cl)cc2)S(=O)(=O)c2ccc(Cl)cc2)c1 | -5.27
OCCN1CCN(c2nc(N3CCCCC3)nc(N3CCCCC3)n2)CC1 | 0.605
Cc1ccc(-c2nnc(C3CCN(S(=O)(=O)c4ccc(CC(C)C)cc4)CC3)o2)cc1 | -4.98
N#C/C(=C\c1cc(Br)ccc1OCc1ccccc1)c1nn(CCO)c(N)c1C#N | 10.2
COc1ccc(CNCCc2ccc(F)cc2)c(OC)c1C | 12.8
CCCc1c(-c2ccccc2)nc2sc3c(c2c1N)CCCC3 | -0.436

SMILES | % Inhibition @ 10 uM [%]
O=C(O)CS(=O)(=O)c1ccccc1C(=O)O | -2.03
CN1CCCN(Cc2cccc(Oc3ccccc3)c2)CC1 | -1.86
NS(=O)(=O)c1ccc(CNC(=O)c2ccc(Br)o2)cc1 | 2.32
C#CCN1C(=O)S/C(=C\c2ccccc2OCC)C1=O | -1.51
O=C(CCCN1C(=O)C(c2ccccc2)Oc2cccnc21)NCc1ccc2c(c1)OCO2 (stereo not shown) | 4.41
Cc1cccc(NC(=O)c2cccc3c2-c2ccccc2C3=O)n1 | 12.7
CC(C)NS(=O)(=O)c1ccc(OCC(=O)N2CCOCC2)cc1 | -1.1
OCCC1CCCCN1C1CC2CCC1C2 (stereo not shown) | -5.44
CC1CCN(C2CCN(C(=O)c3ccccc3F)CC2)CC1 | 0.222
CCC(=O)NCCCc1nc2ccccc2n1Cc1ccc(C)cc1 | 2.73
COC(=O)C1=CN(C)C=C(C(=O)OC)C1c1ccccc1OC(C)C | 1.86
Cn1c(=O)c(-c2ccccc2)c(O)c2c(=O)n(-c3ccccc3)c(=O)n(-c3ccccc3)c21 | -1.07
Cn1c(=O)[nH]c(=O)c2c1ncn2CCN1CCCCCC1 | 0.606
O=[N+]([O-])c1ccc(N2CCOCC2)cc1[N+](=O)[O-] | -0.736
N#CCNC(=O)C(Cc1c[nH]c2ccccc12)NC(=O)OCc1ccccc1 (stereo not shown) | -1.41
C=CCN1C(=O)/C(=C/C=C/c2ccccc2)C(=O)NC1=S | 2.51
CCOc1ccc(C2=C/C(=C/c3cccc(OC)c3OC)C(=O)O2)cc1 | 1.52
CN(C)CCN(Cc1ccccc1)C(=O)Cn1ncc2c3ccccc3nc-2c1O | 3.72
CC(NC(=O)c1cc(S(=O)(=O)N2CCOCC2)cn1C)c1ccc2c(c1)OCCO2 (stereo not shown) | 7.5
O=C1/C(=C/c2ccccc2Cl)Cc2ccccc21 | -5.51
COc1ccc2c(c1)-c1nc(C)sc1CC2 | -3.53
O=C(Nc1ccccc1Cl)c1ccc2c(c1)C(=O)N(Cc1ccco1)C2=O | -1.38
C/C(NCCc1ccc(Cl)cc1Cl)=C(\C#N)C(=O)NC1CCCCC1 | 2.17
CC(C)c1ccc(-c2csc(NC(=O)C3CC3)n2)cc1 | 5.37
COc1ccc(S(=O)(=O)NCC2CCCO2)cc1C(=O)O (stereo not shown) | -0.559
Cc1cc(-c2ccc(C)c(S(=O)(=O)NCC3CCN(CCC(C)C)CC3)c2)on1 | 2.24

SMILES | % Inhibition @ 10 uM [%]
Cc1cc(-c2ccc(NS(C)(=O)=O)c(C)c2)ccc1NS(C)(=O)=O | -5.6
COc1ccccc1/C=C/c1nc(C#N)c(NCCCn2ccnc2)o1 | 3.94
CSc1nc(O)c(Cc2cc(C(C)=O)ccc2OC(C)C)c(O)n1 | -1.55
CC(C)(C)NC(=O)COc1ccccc1C#N | -5.32
COCCCNC(=O)CCN1C(=O)c2ccccc2Sc2ncccc21 | -0.397
COc1cc2c(cc1OC)CN(Cc1ccsc1)CC2 | 0.708
CC/C(=N\O)c1c(C)n(C)c2ccccc12 | -0.744
O=C(CCCn1nc(-c2ccccc2)c2cc(Cl)ccc21)NCc1ccccn1 | 3.45
CC(C)C(=O)Nc1cccc(N2CCN(CCCN3C(=O)C4CCCCN4C3=O)CC2)c1 (stereo not shown) | -11.9
CC1CN(c2oc(COc3ccc(Cl)cc3)nc2C#N)CC(C)O1 (stereo not shown) | -3.16
CCCCSCCCNC(=O)CS(=O)Cc1nc(-c2cccc(C)c2)oc1C (stereo not shown) | 0.689
Fc1cccc(CN2CCOCC2)c1 | -4.14
Cc1cccc(-n2c(C)cc(/C=C3\C(=N)N4N=C(N5CCCC5)SC4=NC3=O)c2C)c1 | -3.44
CSCCC(Nc1c2ccccc2nc2ccccc12)C(=O)O (stereo not shown) | 1.74
COc1cc(CN2CC(C)OC(C)C2)cc(Br)c1O (stereo not shown) | -1.5
COc1cc(/C=C\C(=O)Nc2c3c(nn2-c2ccc(F)cc2)CSC3)cc(OC)c1OC | 5.76
COc1cccc(N2CCN(Cc3nc(O)c4ccccc4n3)CC2)c1 | 0.605
O=C1NC(=S)N/C1=C/c1cccc(O)c1 | 0.345
Cc1nnc(N2CCCC(C(=O)NCc3cccnc3)C2)c2nn(-c3ccc(Cl)cc3)c(C)c12 (stereo not shown) | 10.1
CCOC(=O)C1=C(NC(=O)c2ccc(C)cc2)S/C(=C\c2cc3c(cc2OC)OCO3)C1=O | -1.92
CCC1CCCCN1CCNC(=O)C1CCN(S(=O)(=O)c2c(C)noc2C)CC1 (stereo not shown) | -0.148
Cc1cc(C)n2nc(SC(C)C(=O)NCc3ccc4c(c3)OCO4)nc2n1 (stereo not shown) | -2.26
CCn1c(/C=C/c2ccc(Cl)cc2)nc2ccccc21 | -5.92
O=C(NCc1ccc(F)cc1)C1CC(=O)N(c2ccc(F)cc2)C1 (stereo not shown) | 1.34
O=C1C=C(c2ccc(Cl)cc2)C(=O)c2ccccc21 | 2.13
COc1ccc(C2C3=C(O)CC(C)(C)CC3=Nc3ccccc3N2C(C)=O)cc1 (stereo not shown) | -7.54

SMILES | % Inhibition @ 10 uM [%]
COc1ccc(CC(=O)O/N=C(\N)c2ccc(C)cc2)cc1OC | -3.28
O=Cc1c[nH]c2ccc(S(=O)(=O)N3CCN(Cc4ccccc4)CC3)cc12 | 0.718
COc1ccc(/C=C2N=C(/C=C/c3ccccc3)OC/2=O)cc1OC | 2.77
O=C1/C(=C/c2ccc3c(c2)OCO3)CC/C1=C\c1ccc2c(c1)OCO2 | 2.94
COc1ccc(Br)cc1C1C(C#N)=C(N)Oc2cc(N)ccc21 (stereo not shown) | 1.4
Cc1ccc(-n2c(SCCc3ccccc3)nc3c(c2=O)C2(CCCC2)Cc2ccccc2-3)cc1 | 3.01
O=C(OCCNc1c(F)c(F)nc(F)c1F)c1ccccc1 | 6.82
Cc1[nH]nc2c1C(c1cc(Br)cs1)C(C#N)=C(N)O2 (stereo not shown) | 4.8
C#CCn1c(CCCO)nc2ccccc21 | 1.12
CCOC(=O)c1c(NC(=O)C#Cc2ccccc2)sc2c1CCC2 | -2.13
CCN1CCN(C(=O)c2ccc(-c3nc(CS(=O)(=O)c4ccc(C)cc4)c(C)o3)cc2)CC1 | 8.46
Cc1cc2c(c(=O)n1Cc1cccnc1)C(c1ccc(Cl)cc1)C(C#N)=C(N)O2 (stereo not shown) | 0.343
COCCN1C(=O)c2ccccc2C(C(=O)NCc2ccc(F)cc2)C1c1cccs1 (stereo not shown) | 3.54
CC1CCC(NC(=O)C(C)n2sc3ccccc3c2=O)CC1 (stereo not shown) | -8.41
COc1ccc(S(=O)(=O)NCC(=O)Nc2ccc3c(c2)OCO3)cc1 | 0.323
NS(=O)(=O)c1ccc(C23CC4CC(CC(C4)C2)C3)cc1 | -2.66
CC1(C)CC2=NC3=C(C(=O)CC(C)(C)C3)C(c3ccc(C(F)(F)F)cc3)C2=C(O)C1 (stereo not shown) | 2.76
Cc1cc(C)n(-c2ccc(C(=O)Nc3cccnc3)cc2)n1 | -1.43
COc1cc2c(cc1OC)C1=C(C#N)CN(c3ccc(Br)cc3)CN1CC2 | 2.68
O=C1c2cccc3cccc(c23)C(=O)N1c1ccc2c(c1)OCO2 | -1.2
COc1ccc(CNc2c3c(nc4nncn24)CCC3)cc1 | -5.33
COc1ccccc1CN1CC(C(=O)NC2CCCCC2)CC1=O (stereo not shown) | 0.514
O=C(c1ccc(C(=O)N2CCCC2)cc1)N1CCCC1 | 3.01
O=C(Nc1cccc(Cl)c1)c1ccc(F)c(S(=O)(=O)N2CCOCC2)c1 | -9.4
O=C(C1c2ccccc2C(=O)N(C2CCCC2)C1c1cccs1)N1CCN(Cc2ccccc2)CC1 (stereo not shown) | -7.52
